# Measurements from the supplement of paper PMC11417369.
# ± gives the standard deviation of the averaged measurements. Some of the results follow.
# Test system: PfAP2-G AP2 domain (GST-tagged)
# Assay: gcPBM binding intensity (ln(normalized median fluorescence intensity)); higher = stronger DNA binding
# Outline: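 The binding buffer was 1× PBS containing 1% milk, 0.2 mg/ml BSA, 0.5% salmon testes DNA and 0.03% Triton X-100. In it, GST-tagged P. falciparum DNA-binding domains expressed in E. coli were applied for 1 h to an Agilent 4 × 180k array of primer-extended double-stranded 36-bp intergenic genomic probes plus negative controls. Binding intensity, read with Alexa488 anti-GST antibody and a 488 nm scan, is the highest Masliner-normalised natural-log median intensity across replicate spots of either probe orientation.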
row,Sequence,gcPBM binding intensity (ln)
1,GTATAATATGAACACACACACACACCCAAAAAAAAA [CACACA_site5152],10.4 ± 0.4
2,TTATGGAACCCCATTCGTACATAAATATTTTATATA [XGTACX_site7112],11.2 ± 0.79
3,TTTTTTTTTTTGTGAGTGCACGTATGAAGAGAAAAA,10.9 ± 0.8
4,ATACATATTAACAAGGTGCAAATGGATTTCATAAAA [GTGCAC_site9775],10.1 ± 0.18
5,TTTTTTATTTTAATGTATTATTTTTATGTAATATAT [GTGCAC_negctrl_site391],9.62 ± 0.085
6,GATATGATTACCTTATGGTGTTTTTGATGGATAGTT [CACACA_negctrl_site1504],9.98 ± 0.057
7,TTTTATTATTTATATACACACTTGCTGAAATGTTAT [CACACA_site5919],10.05 ± 0.071
8,CGGTATTTTTTAATTTGTACGCATATACAATAATTA [XGTACX_site8603],11.5 ± 1.1
9,TATAATAATAATGATAGTACGTATGAGTTCAAAAAA [XGTACX_site608],11 ± 0.59
10,TATATACAAATATGCTGTACAAAAAAAAAAAAAAAA [XGTACX_site4732],10.7 ± 0.95
11,TATGTTTAAATATATTGTACGCACGTATGTTTTTAA [XGTACX_site1108],11.4 ± 0.82
12,TTTATGCACGCGTGCACACACATATGAAAAAAGGTA [CACACA_site3315],10.8 ± 0.5
13,ATATATATATATATATGTACATATTCATCTTATTCT [XGTACX_site1537],11.2 ± 0.54
14,AATACCTTTTAATAATGTACAAACAAAAATTAGAGA [XGTACX_site6850],10.9 ± 0.33
15,TATATATTAAAAATAGTGCAAAATAATATATATATA [GTGCAC_site9716],10 ± 0.37
16,TTTTATTTATATTATACACACAAGGAAAAAAAAAAA [CACACA_site7690],10.2 ± 0.26
17,ACAAATAAATATATATGTACATATATTTTTTTATTT [XGTACX_site2989],11.2 ± 0.64
18,ATGTCTATATATTAAGGTACACATATATGCTATTCA [XGTACX_site6008],11.1 ± 0.57
19,GTTTAACTGTTTTATACACACAATGTATCCAATAAA [CACACA_site5612],10.2 ± 0.28
20,ATATTAATTTTTATTACACACTCTCAATTTTTATTT [CACACA_site58],9.94 ± 0.014
21,AAAATATACATAAACACACACAAAACGTTTAAGAAA [CACACA_site1071],9.935 ± 0.007
22,AAAAAAAAAAAAAAAGTACACACTTTTGCGTACATG [CACACA_site3097],12.3 ± 1.4
23,TTTTAGTTAATTCATGCATGTAAAGTTTTATTTATA [TGCATGCA_site252],9.69 ± 0.21

row,Sequence,gcPBM binding intensity (ln)
1,TTATGCGTTTGCAAAAGTACATATCTATTATTTTTA [XGTACX_site7609],11 ± 0.86
2,TTATTTTATTTTGAAGCATGCTTTTTGCTGTGATAA [TGCATGCA_site278],9.8 ± 0.38
3,AAATAATATTTATACACACACACATATTTATATACA [CACACA_site6403],10.04 ± 0.035
4,TTTTTTTTTTTTTGTTGTACCCATCATATATACATA [XGTACX_site4342],11.2 ± 1
5,GGTCTTATTTTTAGTAGTACAAATATAATATACATA [XGTACX_site6483],11.4 ± 0.83
6,CTAAACAGAATTATCACACATATAAATATAAACATA [CACACA_site4560],9.725 ± 0.007
7,ATATATTACATATGTGTGCACGTTCCAAAATTTTTA,10.6 ± 0.19
8,AAAATACACGCATACACACACACACGCGCACATATA [CACACA_site6448],10.5 ± 0.16
9,TTTTCATGTTGTAAAGCATGCTTTACTCATAAAAAA [TGCATGCA_site917],9.95 ± 0.23
10,ATTATTAAAAGAAGAAGTACTTATATATTAATATTA [XGTACX_site5227],11.3 ± 0.83
11,TATAAAAATATTTAATGTACGAATCTGTGATATATC [XGTACX_site7881],10.9 ± 0.66
12,TTAAAATAGATATTAGTGCAAAAAAAAAAAAATAAA,9.9 ± 0.085
13,TTTTGATATAAATATTAGATTAATAAATAAAAAAAT [CACACA_negctrl_site1635],9.705 ± 0.078
14,TTTTTTGTTTGAATGGTGCATTTTGTAATTATATTT,10.2 ± 0.31
15,ATAATATCATAATATTGTACATATTTTATTTTAAAT [XGTACX_site1115],11.1 ± 0.54
16,CAACTAACATATATTCAACACACATATACCTTCAAC [CACACA_site8988],10.14 ± 0.049
17,GTTAGAATTGTTAGGTGGTCAAAAAGGAGAAAAAAA [XGTACX_site2086],11.3 ± 0.89
18,TTTTTTTAGTTAATTAAACACACAAAAAAAAAAATA [CACACA_site9301],10.1 ± 0.4
19,TAACATATTATATATACATGCATACGTGAACTAATC [TGCATGCA_site888],10.2 ± 0.14
20,ATTGTATATGTATATGCACACAATATATGTACTTAT [CACACA_site2611],11.3 ± 0.95
21,GATATATTATTTGAATGTACATATTATATTTATATT [XGTACX_site907],11 ± 0.54
22,TTTTTAATTAACTTTTTATAAATAAATAAAAATATA [GTGCAC_negctrl_site334],9.76 ± 0.26
